Assay results reported in article PMC4336329 (PLoS ONE, 2015).
Hit rate of the full screen: of about 310,000 compounds, about 2,200 (0.71%) showed an effect of 50% or more. Effects have a minus sign here. This is one part of the list.

biological target: human ether-à-go-go-related gene (hERG) potassium channel (human, UniProt Q12809); assay: primary screen, population patch clamp on CHO cells stably expressing hERG
Sequence (Q12809 whole entry, looked up): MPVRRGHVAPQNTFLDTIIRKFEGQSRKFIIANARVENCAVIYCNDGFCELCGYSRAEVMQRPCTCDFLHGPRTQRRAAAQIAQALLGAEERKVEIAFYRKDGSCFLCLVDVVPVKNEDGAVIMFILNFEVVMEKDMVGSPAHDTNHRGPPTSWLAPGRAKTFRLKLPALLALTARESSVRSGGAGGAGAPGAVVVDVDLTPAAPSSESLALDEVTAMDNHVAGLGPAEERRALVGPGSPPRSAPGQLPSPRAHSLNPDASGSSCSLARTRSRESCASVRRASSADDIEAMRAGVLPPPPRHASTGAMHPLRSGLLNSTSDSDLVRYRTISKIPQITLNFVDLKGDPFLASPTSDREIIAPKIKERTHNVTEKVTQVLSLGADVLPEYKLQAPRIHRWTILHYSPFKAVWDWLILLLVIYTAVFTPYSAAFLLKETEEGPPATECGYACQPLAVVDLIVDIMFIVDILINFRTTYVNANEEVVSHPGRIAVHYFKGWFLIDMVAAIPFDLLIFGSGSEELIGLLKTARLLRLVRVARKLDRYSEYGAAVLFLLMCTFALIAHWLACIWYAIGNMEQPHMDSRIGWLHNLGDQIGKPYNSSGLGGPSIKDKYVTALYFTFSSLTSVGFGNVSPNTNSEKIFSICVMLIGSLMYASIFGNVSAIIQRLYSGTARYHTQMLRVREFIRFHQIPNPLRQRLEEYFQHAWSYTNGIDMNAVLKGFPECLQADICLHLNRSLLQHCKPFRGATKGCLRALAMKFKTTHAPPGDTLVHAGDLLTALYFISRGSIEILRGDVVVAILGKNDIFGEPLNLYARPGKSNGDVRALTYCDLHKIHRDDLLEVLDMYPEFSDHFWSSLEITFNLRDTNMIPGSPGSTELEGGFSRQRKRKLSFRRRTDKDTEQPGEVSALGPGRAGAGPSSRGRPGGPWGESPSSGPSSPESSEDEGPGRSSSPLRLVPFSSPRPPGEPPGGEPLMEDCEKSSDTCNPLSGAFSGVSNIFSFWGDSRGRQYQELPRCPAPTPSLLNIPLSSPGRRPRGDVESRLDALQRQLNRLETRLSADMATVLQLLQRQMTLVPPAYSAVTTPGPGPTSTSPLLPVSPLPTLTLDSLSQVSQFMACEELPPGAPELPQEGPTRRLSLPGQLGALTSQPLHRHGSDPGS

Structure (SMILES) | hERG current change (%, negative = inhibition) at 1uM [%]
NC(=O)c1cccc(-c2noc(-c3ccccc3F)n2)c1 | 2.7
O=C(c1ccccc1)c1cc(F)c(N2CCOCC2)cc1Cl | 12.4
CCOc1ccccc1C1C(C#N)=C(N)Nc2onc(-c3ccccc3)c21 (stereo not drawn) | -2.75
Cc1ccc(-n2nc3c(c2NC(=O)c2ccc(F)c(F)c2)CS(=O)(=O)C3)cc1 | 5.26
COc1ccc(CCNC(=O)C(=O)NCC2OCCN2S(=O)(=O)c2ccc(OC)c(C)c2)cc1 (stereo not drawn) | 6.74
CCOC(=O)C1=C(COC(=O)CCC(=O)c2ccc(C)cc2)NC(=O)NC1C (stereo not drawn) | 13.8
COc1ccc(N2CCN(C(=O)c3cc(=O)[nH]c4ccccc34)CC2)cc1 | 6.4
O=C(CN1CCN(c2ccc(Cl)cc2)CC1)c1ccccc1 | 6.95
COc1cc(C(=O)N/N=C(\C)Cc2ccccc2)cc(OC)c1OC | 18.3
O=C(CSc1nnc(Cn2nnc3ccccc32)o1)Nc1cccc(Cl)c1 | 7.59
O=C(COC(=O)c1ccc(Cl)c([N+](=O)[O-])c1)NC1CCCC1 | 14
COc1ccc(N2C(=O)C3CCCN3C2c2cc(OC)c(OC)c(OC)c2)cc1 (stereo not drawn) | 3.17
O=C(O)c1ccc(CSc2ccccn2)cc1 | 10.5
CC(C)(C)c1ccc(NC(=O)C2CCCN(c3cnccn3)C2)cc1 (stereo not drawn) | 10.2
Cc1ccc(S(=O)(=O)N2CCCCC2)cc1C(=O)Nc1ccccn1 | 15.4
CCn1c(SCc2nc3ccccc3[nH]2)nnc1-c1cnccn1 | 5.33
N/C(CC(=O)Nc1ccc(F)cc1)=N\O | 2.79
CCc1cc2c(=O)oc(-c3ccccc3F)nc2s1 | 15.1
COc1ccc(S(=O)(=O)NCc2ccc3c(c2)OCO3)cc1C | -8.2

Structure (SMILES) | hERG current change (%, negative = inhibition) at 1uM [%]
CSc1nnc(C)c(=O)n1COC(=O)COc1ccc(F)cc1 | -6.14
COc1ccc(C)cc1NC(=O)NNC(=O)C1CCC(C(C)(C)C)CC1 (stereo not drawn) | 3.34
CSC1=N/C(=C\c2ccccc2)C(=O)N1C | -0.387
Cc1cc(N/N=C/c2ccc(O)c(C)c2O)nc(-c2ccccc2O)n1 | 9.16
O=C(Nc1nnc(-c2ccccn2)o1)c1cccc(Cl)c1 | 3.45
CC1(C)CC(=O)C(C=NC(CCC(N)=O)C(=O)O)=C(O)C1 (stereo not drawn) | 4.28
Cc1cc(C)c(NC(=O)Nc2ccccc2)c(Cl)c1 | 0.0154
O=C(Nc1ccccn1)C(NS(=O)(=O)c1cccc2nsnc12)c1ccccc1 (stereo not drawn) | 6.27
O=C(NNS(=O)(=O)c1ccccc1[N+](=O)[O-])c1cccnc1 | 7.44
COc1cc(-c2cc3nc(C)c(C)c(=O)n3[nH]2)cc(OC)c1OC | -13.9
O=C(O)Cn1c(SCCOc2ccc(Cl)cc2)nc2ccccc21 | 17.4
Cc1n[nH]c(C)c1Cc1c(F)cccc1Cl | 8.49
CN(C)S(=O)(=O)c1cc(NC(=O)CN2C(=O)NC3(CCCc4ccccc43)C2=O)ccc1Cl (stereo not drawn) | 0.0113
Cc1ccc(NS(=O)(=O)c2cccc(C(=O)N3CCCCCC3)c2)cc1 | 10.6
CS(=O)(=O)c1ccc(Cl)c(NC(=O)CN2CCCC2c2ccc3c(c2)OCCCO3)c1 (stereo not drawn) | 2.65
COc1ccc(CC(NC(C)=O)C(=O)NC2CCN(C(=O)c3ccc([N+](=O)[O-])cc3)CC2)cc1OC (stereo not drawn) | 4.24
CCN(CC)S(=O)(=O)c1cccc(C(=O)Nc2ccc(C#N)cc2)c1 | -74
CC(C)c1ccccc1OCC(=O)NCC(c1cccs1)N1CCOCC1 (stereo not drawn) | -8.48
CC12CCC(c3c1nc1ccccc1[n+]3[O-])C2(C)C (stereo not drawn) | 0.975

Structure (SMILES) | hERG current change (%, negative = inhibition) at 1uM [%]
CC1CCCC(NC(=O)c2ccncc2)C1C (stereo not drawn) | 9.58
COC(=O)CN1C(=O)[C@H]2[C@@H](c3ccc(C)o3)N3C(=O)CN(CC4CC4)C(=O)[C@@]3(Cc3ccccc3)[C@H]2C1=O | -17.4
O=C(NCc1ccccn1)c1cnc2sccn2c1=O | 9.6
N#CCCN1CCN(C2=NC(=O)C(=C3CCCCC3)S2)CC1 | -1.77
CCOC(=O)c1c(C(F)(F)F)nc2ncccn12 | 10.7
COc1cccc(CN2CCNC(=O)C2CC(=O)N(C)CCc2ccccn2)c1 (stereo not drawn) | 5.15
Cc1ccc(S(=O)(=O)c2cc3ccc(O)cc3oc2=O)cc1C | 9.17
COc1cc(NS(=O)(=O)c2ccc(NC(=O)COc3ccccc3C)cc2)nc(OC)n1 | 13.8
Cc1cc2cc(CN(Cc3ccc4c(c3)OCO4)C(=O)c3cnccn3)c3nnnn3c2cc1C | 2.1
CCOCCCNC(=O)c1ccc(NC(C)=O)cc1 | -8.86
COC(=O)c1ccccc1NC(=O)Cn1nc(C(F)(F)F)c2c1CCC2 | -10.6
CC(=O)N/C(=C\c1ccccc1)C(=O)Nc1ccccc1C | 16.8
Cc1ccc(C(=O)NCC(=O)OCC(=O)Nc2ccccc2C#N)s1 | 11.3
CC(c1ccco1)N(C(=O)c1cccc(Br)c1)c1ccccn1 (stereo not drawn) | 0.194
C=CCOc1cccc(/C=C\c2nc(O)c([N+](=O)[O-])c(=O)[nH]2)c1 | 15
CC(c1nnc(SCC(=O)Nc2sccc2C#N)n1-c1ccc(Cl)cc1)N(C)C (stereo not drawn) | 8.41
CCn1c(C)nc2cc(C(=O)N/N=C(\C)c3ccccc3O)ccc21 | 12.9
COCCCNC(=O)CCn1c(=O)c2ccccc2n(CC(=O)Nc2ccccc2C)c1=O | 12.3
Brc1cccc(-c2nc(-c3ccncc3)no2)c1 | 12.2
